Source: the supplement of paper PMC7826260
Some of the results follow. Cleavage of a single-stranded DNA pool by Rep nickase domains was read by sequencing at 3 µM enzyme and 37 °C for 1 h; the strands have 90 letters, of which the middle is given. Numbers give uncut DNA relative to the enzyme-free pool, as log2; strong cutting gives strongly negative numbers. There is no active / inactive call. Counts are relative to all reads; values above 0 arise when much of the pool is cut.

Key:
Assay in all cases: uncleaved DNA left, log2 of reads against the no-enzyme library (log2 ratio); higher = less cleavage (more negative = more Rep cleavage of the k-mer); sequences stand for … in CTCGTCCG…ACCGGAGA
[1] = tested on: T1, Rep nickase domain of Muscovy duck circovirus
T1 sequence (Rep 1-111, printed without the tag): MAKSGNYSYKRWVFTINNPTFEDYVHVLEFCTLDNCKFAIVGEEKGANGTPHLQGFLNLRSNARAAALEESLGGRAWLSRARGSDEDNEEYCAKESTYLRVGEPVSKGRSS
Experimental: (§1)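 A pool of 90-nt single-stranded DNAs with seven random bases just before the constant AC of the nick site (name = the seven bases) was cut by 3 µM recombinant His6-SUMO-tagged Rep nickase domain (300 nM DNA, 50 mM HEPES pH 8.0, 50 mM NaCl, 1 mM MnCl2, 1 h, 37 °C, three replicates). Uncut DNA was amplified and sequenced.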

[2] = tested on: T2, Rep nickase domain of banana bunchy top virus
T2 sequence (Rep 1-94, printed without the tag): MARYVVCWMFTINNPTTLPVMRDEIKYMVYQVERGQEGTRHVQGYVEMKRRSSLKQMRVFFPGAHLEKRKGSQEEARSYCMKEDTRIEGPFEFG
Experimental: as §1

[3] = tested on: T3, Rep nickase domain of cabbage leaf curl virus
T3 sequence (Rep 1-116, printed without the tag): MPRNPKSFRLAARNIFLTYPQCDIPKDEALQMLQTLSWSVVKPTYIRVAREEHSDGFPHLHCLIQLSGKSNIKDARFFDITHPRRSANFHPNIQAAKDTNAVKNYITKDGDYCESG
Experimental: as §1

[4] = tested on: T4, Rep nickase domain of chickpea chlorotic dwarf virus
T4 sequence (Rep 1-124, printed without the tag): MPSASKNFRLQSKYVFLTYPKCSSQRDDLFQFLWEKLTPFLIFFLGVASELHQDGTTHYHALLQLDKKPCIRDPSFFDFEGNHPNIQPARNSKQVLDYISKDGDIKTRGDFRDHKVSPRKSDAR
Experimental: as §1

[5] = tested on: T5, Rep nickase domain of faba bean necrotic yellows virus
T5 sequence (Rep 1-98, printed without the tag): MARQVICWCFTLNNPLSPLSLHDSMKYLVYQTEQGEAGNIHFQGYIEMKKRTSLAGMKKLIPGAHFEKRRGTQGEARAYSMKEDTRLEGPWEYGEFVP
Experimental: as §1

[6] = tested on: T6, Rep nickase domain of maize striate mosaic virus
T6 sequence (Rep 1-117, printed without the tag): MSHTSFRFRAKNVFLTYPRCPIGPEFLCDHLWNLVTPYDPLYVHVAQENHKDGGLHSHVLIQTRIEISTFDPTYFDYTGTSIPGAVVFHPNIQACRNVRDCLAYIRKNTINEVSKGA
Experimental: as §1

[7] = tested on: T7, Rep nickase domain of porcine circovirus 2
T7 sequence (Rep 2-116, printed without the tag): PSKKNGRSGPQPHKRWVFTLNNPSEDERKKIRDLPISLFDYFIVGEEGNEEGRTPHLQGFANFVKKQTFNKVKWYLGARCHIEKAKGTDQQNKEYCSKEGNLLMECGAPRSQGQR
Experimental: as §1

[8] = tested on: T8, Rep nickase domain of tomato golden mosaic virus
T8 sequence (Rep 1-124, printed without the tag): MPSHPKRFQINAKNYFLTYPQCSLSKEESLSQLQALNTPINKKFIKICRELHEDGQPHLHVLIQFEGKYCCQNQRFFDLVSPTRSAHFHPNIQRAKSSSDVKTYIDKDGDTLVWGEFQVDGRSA
Experimental: as §1

[9] = tested on: T9, Rep nickase domain of tomato yellow leaf curl virus
T9 sequence (Rep 1-136, printed without the tag): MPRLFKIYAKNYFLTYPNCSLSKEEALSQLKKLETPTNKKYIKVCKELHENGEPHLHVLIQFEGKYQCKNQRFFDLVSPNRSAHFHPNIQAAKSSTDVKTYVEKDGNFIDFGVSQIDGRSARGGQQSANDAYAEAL
Experimental: as §1

[10] = tested on: T10, Rep nickase domain of wheat dwarf virus
T10 sequence (Rep 1-137, printed without the tag): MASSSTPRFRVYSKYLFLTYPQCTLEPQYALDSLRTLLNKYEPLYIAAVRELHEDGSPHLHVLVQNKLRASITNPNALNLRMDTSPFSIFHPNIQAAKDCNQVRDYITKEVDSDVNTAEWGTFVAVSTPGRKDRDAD
Experimental: as §1

Sequence	uncleaved DNA left (log2) [1]	uncleaved DNA left (log2) [2]	uncleaved DNA left (log2) [3]	uncleaved DNA left (log2) [4]	uncleaved DNA left (log2) [5]	uncleaved DNA left (log2) [6]	uncleaved DNA left (log2) [7]	uncleaved DNA left (log2) [8]	uncleaved DNA left (log2) [9]	uncleaved DNA left (log2) [10]
CAGGACG	-0.0137	0.125	-0.319	-0.126	-0.00528	-1.07	0.167	0.0823	0.0658	-0.0251
ATTTGCT	-0.604	-0.403	-0.795	-0.952	-0.0183	-1.03	-1.27	-0.0869	0.0251	-0.212
TATATTC	-0.0456	-0.0161	-0.00842	-0.398	0.0127	-0.86	-0.0556	-0.0861	-0.012	-0.0784
ACTGGGT	0.00127	-0.0215	-0.172	0.313	-0.0791	0.0583	0.0772	0.0768	-0.0534	-0.0983
GCGAGCT	0.0668	0.00141	0.111	0.367	0.075	0.395	-0.0602	0.0476	0.0412	0.0142
GCCCGTG	-0.132	-0.158	-0.441	-0.334	-0.0816	-0.803	-0.0427	-0.0678	-0.0492	-0.162
ACAACGG	0.0106	0.0559	-0.386	-0.288	0.104	-0.615	0.181	0.107	-0.00401	-0.0324
GAGTAAT	-0.695	-2.41	0.232	0.45	-2.45	1.48	-3.24	-0.1	0.108	0.166
GTCGGTG	0.0405	0.0882	0.18	0.528	-0.0539	0.559	0.015	0.184	-0.0473	0.0368
ACAAAGA	0.169	0.0292	-0.0115	-0.0369	0.0858	-0.97	0.13	0.0206	0.115	0.0495
TCCGACT	0.156	-0.0606	0.144	0.172	0.158	0.793	0.105	-0.0409	0.0674	0.107
TGTGTCA	0.0862	0.107	0.358	0.742	0.102	1.61	0.166	0.12	0.193	0.23
CACTTAT	-1.25	-2.42	-0.295	-2.33	-0.0812	-0.785	-3.64	-0.117	-0.196	-0.227
TACTGCT	-3.43	-1.93	-2.78	-2.69	-0.0114	-1.19	-3.35	-0.256	0.0427	-0.138
GCCAGTG	-0.0962	0.0121	-0.56	-0.478	0.0724	-0.949	0.0516	0.0648	-0.0141	-0.0942
AATAGAG	0.023	-0.0024	-0.608	-0.471	0.0797	-1.06	0.215	0.136	0.137	0.0434
GGAGGCA	-0.0341	0.0416	0.771	1.74	-0.0795	2.06	0.141	0.0179	-0.115	-0.0219
CTCCCCG	-0.0607	-0.0391	-0.868	0.0128	0.0256	-0.692	-0.0244	-0.0668	-0.0783	-0.103
TCCTAAG	0.0377	0.126	-0.632	-0.557	0.0908	-1.16	0.174	-0.0841	0.105	0.0529
AGACACC	-0.0296	0.0833	0.786	1.61	0.0853	2.04	0.0423	0.102	0.148	0.235
TATATAG	0.0595	0.0364	-0.638	-0.615	0.0883	-1.3	0.17	0.0254	0.0633	-0.0794
GCAGCTT	0.0717	-0.0398	-0.0551	-0.974	0.0481	0.0709	-0.016	0.0608	0.0564	-0.0457
CACATGT	-0.0581	-0.0348	-0.265	-0.985	-0.0533	-0.975	-0.266	-0.0537	-0.0221	-0.0723
TGCACGT	0.0717	-0.0116	-0.0458	0.0466	-0.0773	-0.305	0.0311	-0.122	-0.0327	0.0338
GAGCTAG	-0.156	-0.157	-0.291	0.0262	-0.15	-0.583	-0.0795	-0.0166	-0.138	-0.122
CTACAAT	0.012	0.0226	-0.342	-2.16	-0.137	-0.699	-0.147	-0.155	0.0481	-0.0416
CTCAGCG	-0.0579	-0.0395	-1	0.258	0.00164	-0.906	0.0385	-0.213	-0.11	-0.14
CTGTCGG	-0.0548	-0.054	0.517	1.77	0.0298	1.71	-0.0392	0.135	-0.113	-0.0605
GCGAACT	-0.0576	0.00979	0.0821	0.369	-0.0475	1.19	-0.121	-0.156	-0.0565	0.127
ACCCCGC	-0.0182	-0.0726	-0.5	-0.687	-0.0394	-0.838	0.03	-0.00695	-0.079	-0.137
